# The other results are listed elsewhere or left out. Single values are uncertain, as repeats are few or missing.
# Test system: A2058
# Assay: cell count relative to DMSO control; melanoma cells; higher = more viable cells
# Conditions: library dose: standard library concentration; 72 h
# 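Note: cells treated in 1,536-well plates, then fixed and DAPI-stained, with nuclei counted from automated high-throughput microscope images.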
row,SMILES,cell count
1,"COc1cc([C@@H]2c3cc4c(cc3[C@@H](O[C@@H]3O[C@@H]5CO[C@@H](C)O[C@H]5[C@H](O)[C@H]3O)[C@H]3COC(=O)[C@H]23)OCO4)cc(OC)c1O [etoposide] + Nc1cccc2c1CN(C1CCC(=O)NC1=O)C2=O [lenalidomide] (first compound 0.1 µM, partner dose 5 µM)",70.5%
2,"Cn1cnc2c(F)c(Nc3ccc(Br)cc3Cl)c(C(=O)NOCCO)cc21 [selumetinib] + NCC(=O)Nc1ccc(-n2nc(C(F)(F)F)cc2-c2ccc3c(ccc4ccccc43)c2)cc1 [OSU03012] (first compound 0.075 µM, partner dose 5 µM)",107%
3,"Cn1cnc2c(F)c(Nc3ccc(Br)cc3Cl)c(C(=O)NOCCO)cc21 [selumetinib] + Cc1nc(Nc2ncc(C(=O)Nc3c(C)cccc3Cl)s2)cc(N2CCN(CCO)CC2)n1 [dasatanib] (first compound 0.075 µM, partner dose 0.02 µM)",69.7%
4,"Cn1cnc2c(F)c(Nc3ccc(Br)cc3Cl)c(C(=O)NOCCO)cc21 [selumetinib] + Cn1c(=O)n(-c2ccc(C(C)(C)C#N)cc2)c2c3cc(-c4cnc5ccccc5c4)ccc3ncc21 [NVP-BEZ235] (first compound 0.075 µM, partner dose 0.02 µM)",82.4%
5,"Cn1cnc2c(F)c(Nc3ccc(Br)cc3Cl)c(C(=O)NOCCO)cc21 [selumetinib] + C=C(c1ccc(C(=O)O)cc1)c1cc2c(cc1C)C(C)(C)CCC2(C)C [Bexarotene] (first compound 0.075 µM, partner dose 10 µM)",104%
6,"C[C@]1(O)C[C@@H](c2nc(-c3ccc4ccc(-c5ccccc5)nc4c3)c3c(N)nccn32)C1 + Nc1nc(F)nc2c1ncn2[C@@H]1O[C@H](CO)[C@@H](O)[C@@H]1O [fludarabine] (first compound 2 µM, partner dose 1 µM)",63.7%
7,"Cn1cnc2c(F)c(Nc3ccc(Br)cc3Cl)c(C(=O)NOCCO)cc21 [selumetinib] + Cn1sc(=O)n(Cc2ccccc2)c1=O [TDZD-8] (first compound 0.075 µM, partner dose 2 µM)",101%
8,"C[C@]1(O)C[C@@H](c2nc(-c3ccc4ccc(-c5ccccc5)nc4c3)c3c(N)nccn32)C1 + OCc1c[nH]c2ccccc12 [Indole-3-carbinol] (first compound 2 µM, partner dose 4 µM)",74%
9,"Cn1cnc2c(F)c(Nc3ccc(Br)cc3Cl)c(C(=O)NOCCO)cc21 [selumetinib] + C=CCNC1=C2C[C@@H](C)C[C@H](OC)[C@H](O)[C@@H](C)/C=C(\C)[C@H](OC(N)=O)[C@@H](OC)/C=C\C=C(/C)C(=O)NC(=CC1=O)C2=O [Tanespimycin] (first compound 0.075 µM, partner dose 0.01 µM)",72%
10,"CCN(CC)CCNC(=O)c1c(C)[nH]c(/C=C2\C(=O)Nc3ccc(F)cc32)c1C [sunitinib] + O=C(O)C(=O)Nc1sc2c(c1C(=O)O)CCNC2 [TCS401] (first compound 2 µM, partner dose 8.33333 µM)",80.6%
11,"Cn1cnc2c(F)c(Nc3ccc(Br)cc3Cl)c(C(=O)NOCCO)cc21 [selumetinib] + Cn1c(Nc2ccc(C(F)(F)F)cc2)nc2cc(Oc3ccnc(-c4ncc(C(F)(F)F)[nH]4)c3)ccc21 [CHIR265] (first compound 0.075 µM, partner dose 0.4 µM)",74.8%
12,"COc1cc([C@@H]2c3cc4c(cc3[C@@H](O[C@@H]3O[C@@H]5CO[C@@H](C)O[C@H]5[C@H](O)[C@H]3O)[C@H]3COC(=O)[C@H]23)OCO4)cc(OC)c1O [etoposide] + Nc1nc(F)nc2c1ncn2[C@@H]1O[C@H](CO)[C@@H](O)[C@@H]1O [fludarabine] (first compound 0.1 µM, partner dose 1 µM)",76.3%
13,"Cn1cnc2c(F)c(Nc3ccc(Br)cc3Cl)c(C(=O)NOCCO)cc21 [selumetinib] + Nc1ncn([C@H]2C[C@H](O)[C@@H](CO)O2)c(=O)n1 [decitabine] (first compound 0.075 µM, partner dose 0.5 µM)",78.3%
14,"Cn1cnc2c(F)c(Nc3ccc(Br)cc3Cl)c(C(=O)NOCCO)cc21 [selumetinib] + CC(=O)c1c(C)c2cnc(Nc3ccc(N4CCNCC4)cn3)nc2n(C2CCCC2)c1=O [palbociclib] (first compound 0.075 µM, partner dose 0.2 µM)",89.2%
15,"COc1cc([C@@H]2c3cc4c(cc3[C@@H](O[C@@H]3O[C@@H]5CO[C@@H](C)O[C@H]5[C@H](O)[C@H]3O)[C@H]3COC(=O)[C@H]23)OCO4)cc(OC)c1O [etoposide] + CN(C)S(=O)(=O)c1ccc2c(c1)/C(=C/c1cc3c([nH]1)CCCC3)C(=O)N2 [SU6656] (first compound 0.1 µM, partner dose 2 µM)",78.1%
16,"CCN(CC)CCNC(=O)c1c(C)[nH]c(/C=C2\C(=O)Nc3ccc(F)cc32)c1C [sunitinib] + CN(NC(=O)CC(=O)NN(C)C(=S)c1ccccc1)C(=S)c1ccccc1 [STA4783] (first compound 2 µM, partner dose 0.03 µM)",3.99%
17,"COc1cc([C@@H]2c3cc4c(cc3[C@@H](O[C@@H]3O[C@@H]5CO[C@@H](C)O[C@H]5[C@H](O)[C@H]3O)[C@H]3COC(=O)[C@H]23)OCO4)cc(OC)c1O [etoposide] + CC1(C)CCC(c2ccc(Cl)cc2)=C(CN2CCN(c3ccc(C(=O)NS(=O)(=O)c4ccc(N[C@H](CCN5CCOCC5)CSc5ccccc5)c(S(=O)(=O)C(F)(F)F)c4)cc3)CC2)C1 [ABT263] (first compound 0.1 µM, partner dose 2 µM)",85.7%
18,"C[C@]1(O)C[C@@H](c2nc(-c3ccc4ccc(-c5ccccc5)nc4c3)c3c(N)nccn32)C1 + Nc1ccn([C@@H]2O[C@H](CO)[C@@H](O)C2(F)F)c(=O)n1 [gemcitabine] (first compound 2 µM, partner dose 0.002 µM)",69.7%
19,"CCN(CC)CCNC(=O)c1c(C)[nH]c(/C=C2\C(=O)Nc3ccc(F)cc32)c1C [sunitinib] + OCCn1cc(-c2cnc3nnn(Cc4ccc5ncccc5c4)c3n2)cn1 [PF04217903] (first compound 2 µM, partner dose 5 µM)",84%
20,"C[C@]1(O)C[C@@H](c2nc(-c3ccc4ccc(-c5ccccc5)nc4c3)c3c(N)nccn32)C1 + C=CCn1c(=O)c2cnc(Nc3ccc(N4CCN(C)CC4)cc3)nc2n1-c1cccc(C(C)(C)O)n1 [MK1775] (first compound 2 µM, partner dose 0.1 µM)",79.3%
21,"CCN(CC)CCNC(=O)c1c(C)[nH]c(/C=C2\C(=O)Nc3ccc(F)cc32)c1C [sunitinib] + CNC(=O)c1cc(Oc2ccc(NC(=O)Nc3ccc(Cl)c(C(F)(F)F)c3)cc2)ccn1 [sorafenib] (first compound 2 µM, partner dose 2 µM)",76.9%
22,"C[C@]1(O)C[C@@H](c2nc(-c3ccc4ccc(-c5ccccc5)nc4c3)c3c(N)nccn32)C1 + CCN(CC)CCNC(=O)c1c(C)[nH]c(/C=C2\C(=O)Nc3ccc(F)cc32)c1C [sunitinib] (first compound 2 µM, partner dose 2 µM)",74%
23,"COc1cc([C@@H]2c3cc4c(cc3[C@@H](O[C@@H]3O[C@@H]5CO[C@@H](C)O[C@H]5[C@H](O)[C@H]3O)[C@H]3COC(=O)[C@H]23)OCO4)cc(OC)c1O [etoposide] + O=C(O)[C@@H]1[O][Sb](=[O])([O][Sb]2(=[O])[O][C@H]([C@H](O)CO)[C@H](O)[C@H](C(=O)O)[O]2)[O][C@H]([C@H](O)CO)[C@@H]1O [stibogluconate] (first compound 0.1 µM, partner dose 10 µM)",69.4%
24,"COc1cc([C@@H]2c3cc4c(cc3[C@@H](O[C@@H]3O[C@@H]5CO[C@@H](C)O[C@H]5[C@H](O)[C@H]3O)[C@H]3COC(=O)[C@H]23)OCO4)cc(OC)c1O [etoposide] + Cn1nnc2c(C(N)=O)ncn2c1=O [temozolomide] (first compound 0.1 µM, partner dose 10 µM)",43.9%
25,"C[C@]1(O)C[C@@H](c2nc(-c3ccc4ccc(-c5ccccc5)nc4c3)c3c(N)nccn32)C1 + CN(C)S(=O)(=O)c1ccc2c(c1)/C(=C/c1cc3c([nH]1)CCCC3)C(=O)N2 [SU6656] (first compound 2 µM, partner dose 2 µM)",68.4%
26,"C[C@]1(O)C[C@@H](c2nc(-c3ccc4ccc(-c5ccccc5)nc4c3)c3c(N)nccn32)C1 + CC(=O)O[C@@]12CO[C@@H]1C[C@H](O)[C@@]1(C)C(=O)[C@H](O)C3=C(C)[C@@H](OC(=O)[C@H](O)[C@@H](NC(=O)OC(C)(C)C)c4ccccc4)C[C@@](O)([C@@H](OC(=O)c4ccccc4)[C@H]21)C3(C)C [Docetaxel] (first compound 2 µM, partner dose 0.0005 µM)",8.3%
27,"COc1cc([C@@H]2c3cc4c(cc3[C@@H](O[C@@H]3O[C@@H]5CO[C@@H](C)O[C@H]5[C@H](O)[C@H]3O)[C@H]3COC(=O)[C@H]23)OCO4)cc(OC)c1O [etoposide] + Cc1cn(-c2cc(NC(=O)c3ccc(C)c(Nc4nccc(-c5cccnc5)n4)c3)cc(C(F)(F)F)c2)cn1 [nilotinib] (first compound 0.1 µM, partner dose 1 µM)",81.6%
